Measurements: PMC4336329 (PLoS ONE, 2015)
Screen size: about 310,000 compounds; about 2,200 (0.71%) showed an effect of 50% or more. Effects have a minus sign here. The list shows a part of the results.

biological target: human ether-à-go-go-related gene (hERG) potassium channel (human, UniProt Q12809); assay: primary screen, population patch clamp on CHO cells stably expressing hERG
Sequence (Q12809 whole entry, looked up): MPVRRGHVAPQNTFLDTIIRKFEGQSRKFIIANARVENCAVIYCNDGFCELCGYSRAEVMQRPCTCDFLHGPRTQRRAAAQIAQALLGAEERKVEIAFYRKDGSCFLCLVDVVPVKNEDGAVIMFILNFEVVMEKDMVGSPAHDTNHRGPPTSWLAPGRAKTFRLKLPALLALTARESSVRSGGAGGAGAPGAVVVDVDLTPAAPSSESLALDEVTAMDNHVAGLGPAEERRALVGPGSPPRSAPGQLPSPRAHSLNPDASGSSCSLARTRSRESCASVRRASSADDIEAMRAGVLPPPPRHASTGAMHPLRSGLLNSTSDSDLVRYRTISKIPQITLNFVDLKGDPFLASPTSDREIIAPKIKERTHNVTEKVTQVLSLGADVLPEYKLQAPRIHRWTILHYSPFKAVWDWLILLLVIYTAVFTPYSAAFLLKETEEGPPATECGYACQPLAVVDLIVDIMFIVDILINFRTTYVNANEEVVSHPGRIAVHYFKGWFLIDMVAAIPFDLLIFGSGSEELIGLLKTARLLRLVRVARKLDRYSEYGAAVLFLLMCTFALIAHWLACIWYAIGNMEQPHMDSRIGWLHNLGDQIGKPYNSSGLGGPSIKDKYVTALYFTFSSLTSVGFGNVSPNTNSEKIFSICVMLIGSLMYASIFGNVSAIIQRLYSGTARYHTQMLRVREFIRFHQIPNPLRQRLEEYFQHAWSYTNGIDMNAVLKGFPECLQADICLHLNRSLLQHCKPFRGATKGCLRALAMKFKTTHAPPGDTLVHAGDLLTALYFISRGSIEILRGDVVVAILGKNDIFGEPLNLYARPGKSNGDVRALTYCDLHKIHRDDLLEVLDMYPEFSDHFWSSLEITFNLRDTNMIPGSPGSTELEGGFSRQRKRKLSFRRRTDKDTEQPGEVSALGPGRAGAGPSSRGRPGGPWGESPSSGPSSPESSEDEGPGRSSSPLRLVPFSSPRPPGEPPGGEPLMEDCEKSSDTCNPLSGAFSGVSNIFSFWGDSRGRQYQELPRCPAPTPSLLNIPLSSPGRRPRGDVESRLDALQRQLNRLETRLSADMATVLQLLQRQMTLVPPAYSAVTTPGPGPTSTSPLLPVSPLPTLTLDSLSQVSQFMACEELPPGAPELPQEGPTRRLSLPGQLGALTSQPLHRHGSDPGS

SMILES | hERG current change (%, negative = inhibition) at 1uM [%]
COc1ccc(S(=O)(=O)NCCOc2ccccc2)cc1-n1cnnn1 | 5.24
Cn1c(N2CCCC2)nc2c1c(=O)n(Cc1cccc(F)c1)c(=O)n2C | -5.21
C=C(C)C(=O)Nc1cccc(C(C)=O)c1 | 12.3
O=C(CN(C(=O)CCC(=O)Nc1nccs1)c1ccccc1F)NCc1ccccc1 | 7.67
Cc1oc(-c2cccc(Cl)c2)nc1CN1CCCC(C(=O)NCc2ccco2)C1 (stereo not shown) | -45
C=CCNC(=O)COc1ccc(N(C)S(=O)(=O)c2ccc(NC(C)=O)cc2)cc1 | 11.6
O=C(NCC1CCCO1)c1ccc(Oc2ccc([N+](=O)[O-])cc2Cl)cc1 (stereo not shown) | 1.67
COc1ccc(OC)c(CNn2c(-c3ccccc3F)nc3ccccc3c2=O)c1 | 4.44
COc1ccc(N2C(=O)c3ccccc3S2(=O)=O)cc1 | 8.28
COc1ccc(C(=O)NC2CCc3ccccc32)cc1OC1CCN(C(C)=O)CC1 (stereo not shown) | 9.68
COc1ccc(Nc2cc(=O)oc3ccccc23)cc1 | 9.98
Cc1cc(C)n(C(=O)COc2c(C)cccc2C)n1 | 11.5
CC/C(=N\O)C(C)(C)/[N+]([O-])=C/c1ccc(Br)cc1 | 9.75
C[C@@]12CCC3[C@@](CCC4[C@@]3(C)CCC[C@@]4(C)C(=O)N3CCCCC3)(CC1=O)C2 (stereo partly shown) | 13.8
O=C(Nc1ccc2c(c1)OCO2)N1CCN(Cc2ccco2)CC1 | 4.09
CCCNC(=O)C1CCN(S(=O)(=O)c2ccc(-c3nn[nH]n3)cc2)CC1 | 6.57
COc1ccc(NC(=O)COc2ccc(N(C)S(=O)(=O)c3ccc(Cl)cc3)cc2)cc1 | 10.5
C[C@]1(OC(=O)/C=C/c2ccccc2)C[C@@H](O)[C@]2(O)C=CO[C@@H](O[C@@H]3O[C@H](CO)[C@@H](O)[C@H](O)[C@H]3O)[C@@H]21 | 7.33
COc1ccccc1N1CCN(C(=O)CCS(=O)(=O)c2ccc3c(c2)oc(=O)n3C)CC1 | 14.5
Cc1cccc(N2C(=O)NC(=O)/C(=C\c3cnc(-c4ccccc4)nc3)C2=O)c1 | 11.2
CC(C)(C)[C@@H]1CCC(=O)N(CC[C@H](Sc2ccccc2)c2ccccc2)CC1 | 16.7
O=S(=O)(c1ccc(Cl)c(NC(=S)N/N=C/c2c(F)cccc2F)c1)N1CCOCC1 | -0.887

SMILES | hERG current change (%, negative = inhibition) at 1uM [%]
COCCCN1C(=O)C(=O)/C(=C(/O)c2ccc(S(=O)(=O)N3CCOCC3)cc2)C1c1ccc(Cl)cc1 (stereo not shown) | 13.7
COc1cc2c(cc1NC(=O)Nc1ccccc1)oc1ccccc12 | 12.7
COc1cc(CCCN2CCNC[C@H]2Cc2ccc(O)cc2)cc(OC)c1OC | 12.8
CCOc1cc(NC(=O)c2ccco2)c(OCC)cc1NC(=O)COc1ccccc1C | 22.4
CCOC(=O)c1nn(-c2ccccc2)c(C(=O)OCC)c1N | 7.57
N#Cc1cccc(NC(=O)COC(=O)c2ccccc2C(=O)c2ccc(Cl)c([N+](=O)[O-])c2)c1 | 8.6
CN(C)CCCn1c(N)c(C#N)c2nc3ccccc3nc21 | 8.29
CCC(C)N(C(=O)COC(=O)c1nc(Cl)ccc1Cl)C1CCS(=O)(=O)C1 (stereo not shown) | 13.7
Cc1ccc(-c2ccc(=O)n(CC(=O)NCc3ccc(F)cc3)n2)cc1 | 6.67
Cc1cccc(NC2SC(=O)N(CC(=O)O)C2=O)c1 (stereo not shown) | 11.1
CCOC(=O)C1=C(N)Oc2c(oc(CO)cc2=O)C1c1ccc(F)c(F)c1 (stereo not shown) | 9.25
COc1ccc(N(CCC(=O)O)S(=O)(=O)c2ccc(C)c(C)c2)cc1 | 8.65
CC(C)(CO)NCc1ccc(Br)cc1.Cl | 5.93
O=C(COc1ccc2c3c(c(=O)oc2c1)CCC3)NCc1ccncc1 | 5.75
CC1(C)Cc2c(c(-c3ccco3)nc3sc4c(NCCN5CCOCC5)ncnc4c23)CO1 | 13
Cc1nc(NCCc2ccccc2)c2nnn(Cc3ccccc3)c2n1 | 18.3
CC(Nc1nc(-c2ccc(F)cc2)cs1)c1nc2cc(Cl)c(N3CCCCC3)cc2n1CCCO (stereo not shown) | 15.7
COc1ccc(CCC(C)NC(=O)CCc2ccccc2)c(OC)c1 (stereo not shown) | 6.95
CC(CCC(=O)O)C1CC[C@@]2(C)C3C(=O)CC4C(C)(C)C(O)CC[C@]4(C)C3C(=O)C[C@]12C (stereo partly shown) | 15.6
CS(=O)(=O)N1CCc2cc(C(=O)Nc3cccc([N+](=O)[O-])c3)ccc21 | 13.9
CCOc1ccc(C(C)C)cc1S(=O)(=O)Nc1ccc(Cl)cn1 | 10.9
CC1COC(Cn2c3ccccc3c3ccccc32)O1 (stereo not shown) | 14.5

SMILES | hERG current change (%, negative = inhibition) at 1uM [%]
COc1ccc(OC)c(/C=N/N2CCN(c3ccc(Cl)cc3)CC2)c1 | 11.8
OCCCNc1nc(-c2ccc(Br)cc2)nnc1-c1ccc(Cl)cc1 | 0.291
CC1SCC(=O)N(CC(=O)Nc2ccc3c(c2)OCCO3)C1=O (stereo not shown) | 4.39
COc1cc(NC(=O)c2cc(C)on2)cc(C(=O)Nc2cccc(C(F)(F)F)c2)c1 | 15.1
COc1ccc(OC)c(-n2c(-c3cccc(C)c3)n[nH]c2=S)c1 | 13.4
Cc1nn(-c2ccccc2)c2c1C(c1cccs1)C(C#N)=C(N)O2 (stereo not shown) | 7.4
COc1cc(NC(=O)c2ccc(Cl)cc2)c(OC)cc1NC(=O)CN1CCOCC1 | 0.784
CN1CC(c2ccc(Cl)c(Cl)c2)[C@@]2(COc3ccccc3C2=O)[C@@]12C(=O)Nc1ccccc12 (stereo partly shown) | 10.9
Cn1c(N2CCN(C(=O)NC34CC5CC(CC(C5)C3)C4)CC2)nc2ccccc21 | 23
COc1ccc(C(=O)OCC(=O)Nc2ncc([N+](=O)[O-])s2)cc1OC | 4.09
Cc1cc(C)c(C(=O)/C=C/c2ccc(C(C)C)cc2)c(=O)[nH]1 | 15.2
O=C(Cn1cnnn1)NCCc1ccc(Cl)cc1Cl | -3.37
Cc1cc(C)cc(OCc2nnc(SCC(=O)c3ccccc3)o2)c1 | 15.6
CN1CCN(c2c(/C=N/O)c3ccccc3n2C)CC1 | -19.4
Cn1nnc2sc3c(c2c1=O)CCCC3 | 14.3
CCCOc1ccc(N2C(=O)CC(N(Cc3ccc(OC)cc3)C(=S)Nc3ccccc3)C2=O)cc1 (stereo not shown) | 0.174
CSCCC(NC(=O)C1CCC(C)CC1)C(=O)Nc1ccc(NC(C)=O)cc1 (stereo not shown) | 5.76
CCOc1ccc(NC(=O)CSc2nnnn2-c2ccc(C(N)=O)cc2)cc1 | 17.6
CCS(=O)(=O)N1CCC(C(=O)Nc2ccc(C(C)=O)cc2)CC1 | 15.5
O=C(c1cccs1)N1N=C(c2ccccc2)CC1c1ccc(O)cc1 (stereo not shown) | 8.62
Cc1ccc(C(=O)Nc2ccccc2N2CCN(C(=O)C(C)C)CC2)cc1C | 4.06
CCN(CC)C(=O)CSc1nc2ccccc2c(=O)n1CCC(=O)NCCc1ccc(OC)c(OC)c1 | 4.25

SMILES | hERG current change (%, negative = inhibition) at 1uM [%]
CCN(CC)S(=O)(=O)c1ccc(C)c(NC(=O)CSc2nc3ccc(C)cc3[nH]2)c1 | 12.1
Cc1ccc(N(CC2CO2)S(=O)(=O)c2ccc([N+](=O)[O-])cc2)cc1 (stereo not shown) | -3.91
CC1(C)OC2CC3C4CC(F)C5=CC(=O)C=CC5(C)C4(F)C(O)CC3(C)C2(C(=O)CO)O1 (stereo not shown) | 3.44
CCOC(=O)[C@@H]1CCNC[C@@H]1c1ccccc1.Cl | 12.6
Cc1ccc(C(=O)O/N=C(\N)c2ccc(Br)cc2)cc1 | 13.3
COc1cc2cc(C(=O)N3CCN(Cc4ccc5c(c4)OCO5)CC3)c(=O)oc2cc1OC | 11
COc1cccc(CCc2nnc(CCC(=O)NCCC3CCCCO3)o2)c1 (stereo not shown) | 17.5
CCN(CC(=O)NCc1ccc(Cl)cc1)C(=O)CSc1cccc(C(F)(F)F)c1 | -0.764
CCN(CC)c1ccc(/C=N/n2nnnc2N)c(O)c1 | 13.6
O=C(Cc1ccccc1)N/N=C/c1ccccn1 | 12.8
CCOc1ccc(C(=O)COC(=O)C2CCN(c3ccc(C(F)(F)F)cn3)CC2)cc1 | -5.7
CCc1c(O)nc(SCc2nc3ccccc3c(=O)[nH]2)[nH]c1=O | 21
CCN(c1ccccc1)S(=O)(=O)c1ccc(C(=O)N2CC(C)CC(C)C2)cc1 (stereo not shown) | 2.3
O=C(Cn1c(C(=O)NCc2ccco2)cc2sccc21)c1ccccc1 | 10.5
CC1Cc2ccccc2N1C(=O)c1cnc2sccn2c1=O (stereo not shown) | 13.9
CCC1CCc2sc(C(=O)NCC3CCCO3)cc2C1 (stereo not shown) | 11.8
Cc1ccc2nc(-c3ccc(NC(=O)CN(C)S(=O)(=O)c4ccccc4)cc3)sc2c1 | 3.78
O=C1CSC(=S)N1CC1CCCO1 (stereo not shown) | 2.8
CNC(=O)CSc1nnnn1-c1ccc2c(c1)OCCO2 | 8.48
